Measurements as given in PubChem BioAssay AID1347073 (National Center for Advancing Translational Sciences (NCATS), 2019).
About 200 (0.44%) of roughly 45,000 compounds were called active. About 7% were inconclusive and are not listed. The call rests on the fitted dose curve; in most records, active means well fitted activation curve with a large enough effect; inconclusive means small, poorly fitted or top-dose-only effect; inactive means no such curve, though single readings can be large or run the other way. The list shows a part of the results.

Assay: qHTS of TDP-43 Inhibitors: NCGC Sytravon Library Screen; further: nearly all actives have a fitted effect of over 55% in size; on growth rescue (activation): 0% is about no effect
Settings: yeast TDP-43 toxicity rescue, BacTiter-Glo growth, 24 h; series mostly up to 46.1 µM; growth rescue (activation): at the top concentration
Method in brief: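 TDP-43-expressing yeast, pregrown in raffinose, seeded at OD600 0.02 in galactose medium with compound for 24 hr at 30 deg C. Growth read by BacTiter-Glo luminescence, so rescue of toxicity appears as activation.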
Potency means the concentration at half of the fitted maximal effect.

Row | SMILES | growth rescue (activation) | Potency
1 | CN(C)c1cccc(CNC(=O)c2csc([C@@H]3O[C@H](CO)[C@H](O)[C@H](O)[C@H]3O)n2)c1 | inactive: 2.95% | –
2 | Cc1ccc(C)c(NC(=S)/C(=C(\[O-])c2ccc(OC(F)F)cc2)[n+]2ccccc2)c1 | inactive: -3.65% | –
3 | Cc1nc(N2CCOCC2)nc(OCCN2CCOCC2)c1[N+](=O)[O-] | inactive: 7.27% | –
4 | CC1(C(=O)NS(=O)(=O)c2cccc(OC(F)F)c2)CCN1C(=O)C1CCCCC1 (stereo not given) | inactive: 6.62% | –
5 | CC(=O)c1cc2c(cc1N(C(=O)Cn1nnc3ccccc31)C(C(=O)NCCC(C)C)c1cccnc1)OCO2 (stereo not given) | inactive: -3.52% | –
6 | CC1(C(=O)NS(=O)(=O)c2cccs2)CCN1C(=O)C1CC1 (stereo not given) | inactive: 5.36% | –
7 | COc1ccc(C(=O)NCc2nnc(SCC(=O)c3ccc(F)cc3)n2C)cc1OC | inactive: 2.22% | –
8 | Cc1ccc(NC(=O)CSc2ncccn2)c([N+](=O)[O-])c1 | inactive: -1.78% | –
9 | Cc1csc(SCC(=O)Nc2ccc(F)cc2Cl)n1 | inactive: 16.4% | –
10 | O=C(OCC(=O)N1CCN(c2ccccc2)CC1)c1ccco1 | inactive: 13.7% | –
11 | Cc1ccccc1NC(=O)CC(=O)Nc1ccccc1C | inactive: -6.75% | –
12 | Cc1ccc(NC(=O)c2oc3ccccc3c2C)c([N+](=O)[O-])c1 | inactive: -15.9% | –
13 | O=C(CC1C(=O)NCCN1C(=O)Nc1ccc(Cl)cc1)Nc1ccc(F)cc1 (stereo not given) | inactive: -33.9% | –
14 | O=C(C1=NOC(CNc2ncc(C(F)(F)F)cc2Cl)C1)N1CCOCC1 (stereo not given) | inactive: 14% | –
15 | Cc1nc(NC(=O)COC(=O)c2cc3c(s2)CCC(C)C3)c(Cl)cc1Cl (stereo not given) | inactive: 5.28% | –
16 | CCOc1ccc(S(=O)(=O)N2CCC(C(=O)N3CCOCC3)CC2)cc1Cl | inactive: 1.81% | –
17 | Cc1cccn2c(=O)c3cc(C(=O)NCCc4ccccc4)c(=N)n(Cc4ccco4)c3nc12 | inactive: 4.96% | –
18 | COc1ccc(C2=NOC3(CC(=O)N(c4ccc(F)cc4)C3=O)C2)cc1 (stereo not given) | inactive: 11% | –
19 | CN(C)/C=C/C(=O)c1cnc(-c2ccccc2)s1 | inactive: 14.7% | –
20 | CS(=O)(=O)N1CCN(c2ccccc2NC(=O)c2cc(Br)ccc2Cl)CC1 | inactive: 24.2% | –
21 | Cc1cccn2c(=O)c(/C=C(\C#N)C(=O)NCc3ccco3)c(N3CCOCC3)nc12 | inactive: 2.6% | –
22 | COc1ccc2c(c1)c1nc3ccccc3nc1n2Cc1ccc(OC(C)C)c(OC)c1 | inactive: 16.7% | –
23 | CCCCn1c(N)c(N(CC)C(=O)CCNC(=O)c2ccc(Cl)cc2)c(=O)[nH]c1=O | inactive: 10.3% | –
24 | CCC(C(=O)Nc1cc(C(=O)O)ccc1C)c1ccccc1 (stereo not given) | inactive: -10.2% | –
25 | O=C(Nc1cc(S(=O)(=O)N2CCOCC2)ccc1N1CCCC1)c1ccc(Cl)cc1 | inactive: 6.06% | –
26 | Cc1ccc2cc(C3CC(c4ccco4)=NN3S(C)(=O)=O)c(Cl)nc2c1 (stereo not given) | inactive: 16% | –
27 | CC(C)C(=O)Nc1ccc(Br)cc1Cl | inactive: 11.4% | –

Row | SMILES | growth rescue (activation) | Potency
28 | CCOc1ccc(N2C(=O)/C(=C/c3ccco3)N(C)C2=S)cc1 | inactive: 16.8% | –
29 | O=C(/C=C/c1ccc(Cl)cc1)NCc1cccs1 | inactive: 11.9% | –
30 | CC1CCN(C(=O)CNC(=O)c2cccc(OC(F)F)c2)CC1 | inactive: -2.48% | –
31 | O=C(CCCN1C(=O)c2ccccc2C1=O)Nc1c2c(nc3c1CCC3)CCC2 | inactive: 9.15% | –
32 | C=CCn1c(SCC(=O)Nc2ccc(C)cc2C)nnc1-c1cccnc1 | inactive: 6.44% | –
33 | CCc1ccc(C2C(C#N)=C(N)Oc3cc(N)ccc32)cc1 (stereo not given) | inactive: 6.26% | –
34 | CN(C)N1C(N)=C(C#N)C(c2ccccc2)C2=C1CC(C)(C)CC2=O (stereo not given) | inactive: 0.358% | –
35 | O=S(=O)(c1ccc(F)cc1)N1CCN(C(=S)NC2CCCC2)CC1 | inactive: -2.18% | –
36 | COc1cccc(NC(=O)C2CCC(CNS(=O)(=O)c3cccc4cccnc34)CC2)c1 (stereo not given) | inactive: 13.3% | –
37 | CC(=O)Nc1ccc(S(=O)(=O)N(C)CC(=O)OCC(=O)c2cc(C)n(-c3ccc4c(c3)OCO4)c2C)cc1 | inactive: -7.02% | –
38 | COc1ccccc1C(=O)Nc1c(C(=O)NC(C)(C)C)oc2ccccc12 | inactive: 6.82% | –
39 | O=C(/C=C/c1cccc([N+](=O)[O-])c1)N1CCN(c2ccccc2F)CC1 | inactive: 37.8% | –
40 | Cc1cccc(C(=O)NCC(=O)OCC(=O)NC2CCCCC2)c1 | inactive: 7.15% | –
41 | Cc1ccc(NC(=O)CN(C)C2CCCCC2)cc1Br | inactive: -0.394% | –
42 | CCn1nnc(NC(=O)c2ccc(Br)o2)n1 | inactive: 3.92% | –
43 | O=C(c1ccccc1[N+](=O)[O-])N1CC2C3C=CC(C3)C2C1 (stereo not given) | inactive: 14.4% | –
44 | Cc1ccc(C(=O)COc2ccc3ccc(=O)oc3c2)cc1 | inactive: 26.8% | –
45 | Cc1ccc(NC(=O)Cc2nc(CCl)cs2)cc1 | inactive: -5.45% | –
46 | CN(c1ccccc1)S(=O)(=O)c1cccc(C(=O)Nc2ccc(N3CCOCC3)cc2)c1 | inactive: -32% | –
47 | C=CCc1cccc2cc(C(=O)NNC(=O)CC#N)c(=O)oc12 | inactive: 5.55% | –
48 | COc1ccccc1S(=O)(=O)N1CCNC(=O)C1 | inactive: 16.7% | –
49 | CCOc1ccc2[nH]c(=O)c(CN(CC3COCCO3)C(=O)c3ccco3)cc2c1 (stereo not given) | inactive: 8.7% | –
50 | NC(=O)C1CCN(CC(=O)Nc2ccc(S(=O)(=O)N3CCOCC3)cc2)CC1 | inactive: 0.55% | –
51 | Cc1cc(=O)n(C2CCS(=O)(=O)C2)[nH]1 (stereo not given) | inactive: 5.9% | –
52 | Cc1cc(C(=O)N2CCc3ccccc32)c2cc(F)ccc2n1 | inactive: -18.9% | –
53 | COc1cc(C(=O)Nc2ccncc2)c([N+](=O)[O-])cc1OC | inactive: 14.3% | –
54 | O=C1CSC(=NC2CCCCC2)N1 | inactive: 21.5% | –

Row | SMILES | growth rescue (activation) | Potency
55 | Cc1cccc2c(N=Nc3ccc(S(=O)(=O)Nc4ccc(Cl)cc4)cc3[N+](=O)[O-])c(O)[nH]c12 | inactive: -3.87% | –
56 | SC(COCc1ccccc1)CN1CCN(Cc2ccc3c(c2)OCO3)CC1 (stereo not given) | inactive: -7.12% | –
57 | CCCC(C(=O)NC(C)(C)C)N(C(=O)c1snc(C(N)=O)c1N)c1ccc2c(c1)OCCO2 (stereo not given) | inactive: -0.923% | –
58 | CCC1=C/C(=C/c2sc3ccccc3[n+]2CC)CC(C)(C)C1 | inactive: 2.83% | –
59 | O=C(O)c1cc(Cl)c(Cl)cc1C(=O)Nc1cccc2cccnc12 | inactive: 11.7% | –
60 | CS(=O)(=O)N1N=C(c2ccco2)CC1c1ccccc1Cl (stereo not given) | inactive: 7.07% | –
61 | COc1ccc(CSc2nnc(-c3ccncc3)n2N)cc1 | inactive: 9.35% | –
62 | O=C(C1=C(O)C(=O)N(CC2CCCO2)C1c1ccc(Cl)cc1Cl)c1ccco1 (stereo not given) | inactive: -13.8% | –
63 | Cc1[nH]n(-c2ccccc2)c(=O)c1CCO | inactive: -7.37% | –
64 | CC(=O)c1c(C)[nH]c(C(=O)N(CCc2ccccc2)Cc2ccccc2)c1C | inactive: 4.71% | –
65 | O=C(CSc1nccc(=O)[nH]1)NC1CCCC1 | inactive: 6.84% | –
66 | Cc1ccc(N=c2c([N+](=O)[O-])nn(-c3ccc4c(c3)OCCO4)n2O)cc1F | inactive: 12% | –
67 | COc1ccc(S(=O)(=O)NCC(=O)N(CC(=O)NCC2CCCO2)Cc2ccc(F)cc2)cc1 (stereo not given) | inactive: -20% | –
68 | COc1ccc(C(=O)C2CCCN(C(=O)c3n[nH]c4c3CCCC4)C2)cc1OC (stereo not given) | inactive: 9.14% | –
69 | COc1cc(/C=C2\C(=N)N3N=C(C(C)C)SC3=NC2=O)ccc1OCCOc1ccc(NC(C)=O)cc1 | inactive: -23.4% | –
70 | COc1ccc(CNC(=O)C2Cc3ccccc3CN2C(=O)c2ccco2)cc1 (stereo not given) | inactive: 11.5% | –
71 | COc1ccc2c(c1)C(=O)C(=O)N2 | inactive: 9.71% | –
72 | CC(CCc1ccccc1)NC(=O)COC(=O)C1CCC(C(C)(C)C)CC1 (stereo not given) | inactive: 9.01% | –
73 | COc1ccccc1N1CCN(C(=O)C2CCCN(S(=O)(=O)c3ccc4c(c3)CCCN4C(C)=O)C2)CC1 (stereo not given) | inactive: -24% | –
74 | COc1cccc(Oc2coc3c(CN4CCOCC4)c(O)ccc3c2=O)c1 | inactive: -6.56% | –
75 | O=C1c2ccccc2C(=O)c2c1cccc2N1CCN(C/C=C/c2ccccc2)CC1 | inactive: 24.5% | –
76 | CC(C)Oc1ccc(C(=O)NCC(=O)O)cc1 | inactive: 27.3% | –
77 | CCOC(=O)c1ccc(S(=O)(=O)NNC(=O)COc2cccc(C)c2)cc1 | inactive: 0.917% | –
78 | CCCCOC(=O)NCN1C(=O)C2C3C=CC(C3)C2C1=O (stereo not given) | inactive: 20.6% | –
79 | O=C(Nc1ccc(Cl)cc1)c1ccc(S(=O)(=O)N2CCOCC2)cc1 | inactive: 3.16% | –
80 | Cc1ccc(S(=O)(=O)N(C)C)cc1NC(=O)COC(=O)c1ccc2c(c1)OCO2 | inactive: 10.3% | –
81 | O=S(=O)(c1ccc(Cl)cc1)N1CCN(C(=S)NCC2CCCO2)CC1 (stereo not given) | inactive: -7.38% | –

Row | SMILES | growth rescue (activation) | Potency
82 | C/C(=N\Nc1cccc(C(=O)O)c1)c1ccc(Cl)s1 | inactive: -91.8% | –
83 | CC(=O)Nc1ccc(NC(=O)CS(=O)(=O)Cc2ccccc2)cc1 | inactive: 5.66% | –
84 | Cc1cc2c(cc1C)NC(c1cccnc1)C1=C(CC(C)(C)CC1=O)N2 (stereo not given) | inactive: 20.6% | –
85 | CC(C)NS(=O)(=O)c1ccc(CCC(=O)Nc2ccc3c(c2)OCCO3)cc1 | inactive: 4.97% | –
86 | COc1cccc(OC2OC3COC(C)(C)OC3C(O)C2NC(C)=O)c1 (stereo not given) | inactive: -2.89% | –
87 | COCCCNC(=S)NNC(=O)Cn1nc(C)c(Br)c1C | inactive: 15.9% | –
88 | OCCC1CN(Cc2cnc(-c3ccc(Cl)cc3)nc2)CCN1C1CCCC1 (stereo not given) | inactive: 25.1% | –
89 | COc1ccc(/C=C(\C#N)C(=O)OCC(=O)Nc2c(C)cccc2C(C)C)cc1 | inactive: -3.26% | –
90 | O=C(NC1CCCc2ccccc21)c1ccc(Br)cc1 (stereo not given) | inactive: 15.3% | –
91 | COc1ccccc1-c1cc(C(=O)Nc2cccnc2Cl)no1 | inactive: -7.32% | –
92 | CCN1CCN(C(c2cccc(OC)c2)c2sc3nc(C)nn3c2O)CC1 (stereo not given) | inactive: -1.57% | –
93 | CCOC(=O)CCC(=O)NNC(=O)c1ccc(NC(=O)c2ccccc2)cc1 | inactive: -3.32% | –
94 | CNc1cncc(-c2ccc(OC)c(OC)c2)n1 | – | active: 11.2 µM
95 | COc1cc2c(cc1OC)CN(c1ccc(C(N)=O)cc1[N+](=O)[O-])CC2 | inactive: 23.2% | –
96 | O=C(CN1CCNCC1)NCCSc1ccc(Cl)cc1 | inactive: -9.13% | –
97 | COc1ccccc1S(=O)(=O)Nc1ccc(-c2nnc3n2CCCCC3)cc1 | inactive: 10.4% | –
98 | COc1ccc(CN2CCNC(=O)C2CC(=O)N(C)Cc2ccon2)c(OC)c1 (stereo not given) | inactive: 3.65% | –
99 | O=C(CNc1cc(S(=O)(=O)N2CCCC2)ccc1OCC(F)(F)F)Nc1cccc(C(F)(F)F)c1 | inactive: 8.87% | –
100 | CCOc1cc(NC(=O)CCl)c(OCC)cc1NC(=O)CCl | inactive: 6.14% | –
101 | Oc1ccc(/C=N/Nc2nc(-c3ccc(Cl)cc3)cc(C(F)(F)F)n2)cc1 | inactive: 12.7% | –
102 | CCCn1c(N)c(N(CCOC)C(=O)CSc2cc(C)c3ccccc3n2)c(=O)[nH]c1=O | inactive: 5.62% | –
103 | Cc1ccccc1NC(=S)N(CCN(C)C)C(C)c1ccco1 (stereo not given) | inactive: 28.2% | –
104 | Cc1cccc(N2CCN(C(=O)c3ccc4c(c3)N(Cc3ccccc3)C(=O)c3ccccc3S4(=O)=O)CC2C)c1 (stereo not given) | inactive: 27.9% | –
105 | Cc1ccc(-c2nc(S(=O)(=O)c3ccc(C)cc3)c(SCC(N)=O)o2)cc1 | inactive: 16.3% | –
